Results taken from PubChem BioAssay AID463173 (ICCB-Longwood Screening Facility, Harvard Medical School, 2010).
The campaign covered roughly 52,000 compounds. About 1,700 (3.3%) were called active. Rule as the data show it: active = survival mostly below about 52% (no sharp cut-off); inactive = mostly above about 56%. The list shows a part of the results.

The compounds below were run on Wild type (assay: S. aureus survival, RN4220 and DeltatarO strains – OD600, teichoic acid synthesis inhibitors, primary screen (AID 463173)). Conditions: S. aureus RN4220 wild type/DeltatarO growth, OD600, 18 h, hits give low values, screened at 18.75 µg/mL (by protocol).
For `Cc1cc(C)c(/C=C/c2onc(C)c2S(=O)(=O)N2CCC(C(=O)N3CCN(c4ccc(Cl)cc4)CC3)CC2)c(C)c1`, the survival was inactive: 83%. In the case of `Cn1nnc(C(O)CNCc2ccc(F)cc2)n1` (stereo not drawn), the survival was inactive: 106%. With `Cc1ccc(NC(=O)CCNS(=O)(=O)c2cccc3nsnc23)cc1` the survival was inactive: 64%. In the case of `CC1CCc2onc(C(=O)N3CCN(c4cccc(C(F)(F)F)c4)CC3)c2C1` (stereo not drawn), the survival was active: 10%. For `COc1ccc(-c2nc3ccccc3s2)cc1NC(=O)c1cc2ccccc2o1`, the survival was inactive: 62%. `CN(CC(=O)Nc1ccc(F)cc1F)S(=O)(=O)c1ccc(C(=O)N2CCOCC2)s1` was tested, and the survival was inactive: 75%. `CCOc1ccc(-c2nonc2NC(=O)c2ccc(C)cc2)cc1OCC` was tested, and the survival was inactive: 117%. In the case of `CN1CCN(C(c2cccc(Br)c2)c2sc3nc(-c4ccco4)nn3c2O)CC1` (stereo not drawn), the survival was inactive: 82%. For `CCC(=O)N1CCc2cc(Br)cc(S(=O)(=O)CCC(=O)NCCc3ccccc3Cl)c21`, the survival was inactive: 77%. In the case of `CCOc1ccc(-c2nc(SCC(=O)Nc3ccc4c(c3)OCCO4)c(-c3ccc(F)cc3)[nH]2)cc1`, the survival was inactive: 86%. `O=C(Cc1csc2ccccc12)NCc1ccccc1F` was tested, and the survival was inactive: 87%. For `Clc1ccc2nc(-c3ccc(Br)o3)c(Nc3ccc4c(c3)OCCO4)n2c1`, the survival was inactive: 93%. With `COc1cccc(OC)c1C(=O)Nc1cccc(-c2nc3cc(C)cc(C)c3o2)c1` the survival was inactive: 69%. For `COc1ccc(NC(=O)c2noc3c2CSc2ccccc2-3)cc1Cl`, the survival was inactive: 95%. `CCC(=O)OCCCNc1nc(-c2ccc(Cl)cc2)nc2ccccc12` was tested, and the survival was active: -2%. In the case of `CC(=O)N1CCCc2cc(S(=O)(=O)N3CCN(c4ccc(F)cc4)CC3)ccc21`, the survival was inactive: 79%. For `CCc1cccc(-n2nnc(-c3nc(-c4cccs4)no3)c2N)c1`, the survival was inactive: 95%. `O=C(Cn1nc(Cc2cccnc2)c2ccccc2c1=O)Nc1cccc(C(F)(F)F)c1` was tested, and the survival was inactive: 66%. For `COc1ccc(S(=O)(=O)N(C)Cc2nc(-c3cccc(C)c3)no2)cc1`, the survival was inactive: 74%. For `O=C(CSc1nc2ccsc2c(=O)n1Cc1ccccc1F)NCc1ccccc1`, the survival was inactive: 124%. With `O=C1CCC(=O)N1CNC1CCCCC1` the survival was inactive: 106%. With `CC(C)OC(=O)C(N)c1ccccc1` (stereo not drawn) the survival was inactive: 95%. For `CCc1ccc(NC(=O)CN2C(=O)C(c3ccccc3)=NC23CCCCCC3)cc1`, the survival was inactive: 75%. In the case of `CCc1ccc(NC(=O)N(Cc2ccc(C)cc2)Cc2cccn2-c2nnc(N3CCCC3=O)s2)cc1`, the survival was inactive: 121%. In the case of `CCOC(=O)c1ccc(NC(=O)c2cc(=O)c3cc(CC)ccc3o2)cc1`, the survival was inactive: 83%. In the case of `CCCCc1ccc(NC(=O)COc2cccc3c(=O)n(C)ccc23)cc1`, the survival was inactive: 83%. In the case of `CC(OC(=O)Cc1c[nH]c2ccccc12)C(=O)NC1CCCC1` (stereo not drawn), the survival was inactive: 97%. In the case of `Cc1ccc2nc(CSc3nnc(NC(=O)COc4ccccc4)s3)cc(=O)n2c1`, the survival was inactive: 63%. For `CCOC(=O)c1c(C)c(-c2ccccc2)n(CC(=O)NCCc2ccc(C)cc2)c1C`, the survival was inactive: 87%. With `Cc1ccc(NC(=O)C2CCCN(c3nnc(-n4c(C)ccc4C)s3)C2)cc1Cl` (stereo not drawn) the survival was inactive: 78%. `COc1cccc(CNC(=O)C(NS(=O)(=O)c2ccc3nc(C)sc3c2)C(C)C)c1` (stereo not drawn) was tested, and the survival was inactive: 89%. `Cc1ccc(NC(=O)N2CCC(CN3CCC(C)CC3)CC2)cc1F` was tested, and the survival was inactive: 82%. `COc1ccc(-c2cc(C(F)(F)F)nc(SCC(=O)NCCc3ccc(OC)c(OC)c3)n2)cc1` was tested, and the survival was inactive: 70%. With `CCCc1cc(=O)n2[nH]c(-c3ccc(C)cc3)nc2n1` the survival was inactive: 84%. With `Clc1ccc(CNc2ccccn2)cc1` the survival was inactive: 98%. `Cc1cccc(NC(=O)CSc2nnc(C)c(=O)[nH]2)c1` was tested, and the survival was inactive: 101%. In the case of `Cc1ccc(C(CC(=O)Nc2cc(C)cc(C)c2)N2Cc3ccccc3C2=O)cc1` (stereo not drawn), the survival was inactive: 78%. In the case of `Cc1ccccc1CN1c2ccccc2-c2nc(SCC(=O)NCCc3ccccc3)ncc2S1(=O)=O`, the survival was inactive: 53%. `CCN(CC)c1ccc(-n2nc3cc(C)c(NC(=O)c4ccccc4F)cc3n2)cc1` was tested, and the survival was inactive: 80%. For `CCS(=O)(=O)NCC(c1ccco1)N1CCN(c2ccc(OC)cc2)CC1` (stereo not drawn), the survival was inactive: 119%. In the case of `Cc1ccccc1CSc1nnc2[nH]c(=O)cc(C)n12`, the survival was inactive: 77%. With `O=C(Cn1cc(S(=O)(=O)Cc2ccc(F)cc2)c2ccccc21)NCc1ccccc1Cl` the survival was inactive: 127%. `O=C(NCCCc1nc2ccccc2n1Cc1ccc(Cl)cc1)c1ccco1` was tested, and the survival was inactive: 120%. `Cc1oc2ncn(CC(C)C)c(=O)c2c1C(=O)NCCCN(Cc1ccccc1)C(C)C` was tested, and the survival was inactive: 128%. `CCOc1ccc(NC(=O)CSc2nnc(-c3ccc(C)cc3)c(-c3ccc(C)cc3)n2)cc1` was tested, and the survival was inactive: 115%. `O=C(NC1CC(=O)N(c2ccc(Cl)cc2)C1)c1ccc(S(=O)(=O)N2CCCC2)cc1` (stereo not drawn) was tested, and the survival was inactive: 127%. With `COc1ccc(-n2c(SCc3ccccc3F)nc3c([nH]c4ccccc43)c2=O)cc1` the survival was inactive: 79%. For `CCOc1ccc(NC(=O)c2ccc(F)c(S(=O)(=O)NCc3ccc4c(c3)OCO4)c2)cc1`, the survival was inactive: 55%. With `CC(=O)Nc1ccc(S(=O)(=O)Nc2ccc3c(c2)OC(C)(C)O3)cc1` the survival was inactive: 104%. In the case of `CCOc1ccccc1NS(=O)(=O)c1cnc(N)nc1`, the survival was active: -3%. `Cc1ccccc1N1CCN(S(=O)(=O)c2nnc(NC(=O)c3ccc(Cl)cc3)s2)CC1` was tested, and the survival was inactive: 80%. In the case of `COc1ccc(CCNC(=O)C(=O)NCC(c2ccco2)S(=O)(=O)c2ccccc2)cc1OC` (stereo not drawn), the survival was inactive: 53%. For `COc1ccc(CCNC(=O)CS(=O)Cc2nc(-c3ccc(C)cc3)oc2C)c(OC)c1` (stereo not drawn), the survival was inactive: 77%. With `O=C(Cn1c(=O)nc(-c2ccccc2)c2ccccc21)NCCCc1ccccc1` the survival was inactive: 60%. For `CCc1cccc(C)c1NC(=O)CSc1nnc(N)s1`, the survival was inactive: 72%. With `CCc1cccc(NCc2ccccc2-c2nnc(-c3ccccc3Cl)o2)c1` the survival was inactive: 81%. `COc1ccc(N2CCN(C(=O)CN(c3cccc(C(F)(F)F)c3)S(C)(=O)=O)CC2)cc1` was tested, and the survival was inactive: 110%. `CCCC12CN3CC(C)(CN(C1)C3c1cn(C)c3ccccc13)C2=O` (stereo not drawn) was tested, and the survival was inactive: 103%.
